Out of some 360,000 compounds screened, about 520 (0.14%) were called active. Calls follow the shape of the dose curve; as a rule, active = well fitted inhibition curve with a large enough effect; inconclusive = small, poorly fitted or top-dose-only effect; inactive = no such curve, though single readings can be large or run the other way. Inconclusive results, whose numbers are uncertain, are shown. Potencies of inconclusive entries are left out as doubtful fits.
Biological target: Rap guanine nucleotide exchange factor 3 (Homo sapiens) (UniProt O95398)
Chain of UniProt O95398 (O95398 whole entry, looked up): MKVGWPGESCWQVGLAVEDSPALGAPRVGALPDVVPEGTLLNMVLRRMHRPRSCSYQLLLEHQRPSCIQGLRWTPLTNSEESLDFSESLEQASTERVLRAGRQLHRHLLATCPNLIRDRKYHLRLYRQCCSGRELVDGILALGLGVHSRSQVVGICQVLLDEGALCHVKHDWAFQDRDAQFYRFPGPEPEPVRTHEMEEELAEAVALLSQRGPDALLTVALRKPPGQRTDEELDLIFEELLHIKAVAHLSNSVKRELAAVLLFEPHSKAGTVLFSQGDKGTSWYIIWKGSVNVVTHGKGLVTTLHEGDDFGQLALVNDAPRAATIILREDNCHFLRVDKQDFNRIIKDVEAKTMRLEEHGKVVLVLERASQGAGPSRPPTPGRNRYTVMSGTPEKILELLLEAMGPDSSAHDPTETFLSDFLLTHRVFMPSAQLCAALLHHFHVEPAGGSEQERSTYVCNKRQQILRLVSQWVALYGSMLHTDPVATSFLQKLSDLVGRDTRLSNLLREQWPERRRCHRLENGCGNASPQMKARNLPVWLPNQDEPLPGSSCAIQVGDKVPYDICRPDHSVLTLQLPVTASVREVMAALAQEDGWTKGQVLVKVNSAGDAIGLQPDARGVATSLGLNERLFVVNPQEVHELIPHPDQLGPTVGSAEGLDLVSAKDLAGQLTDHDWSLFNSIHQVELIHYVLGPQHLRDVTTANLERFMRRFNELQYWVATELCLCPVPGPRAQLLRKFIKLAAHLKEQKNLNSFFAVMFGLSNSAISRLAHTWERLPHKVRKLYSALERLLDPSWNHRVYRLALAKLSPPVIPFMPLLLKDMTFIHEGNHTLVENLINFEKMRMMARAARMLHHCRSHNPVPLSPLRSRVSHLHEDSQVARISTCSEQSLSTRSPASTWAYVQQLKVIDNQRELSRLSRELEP
Experiment: qHTS for Antagonist of cAMP-regulated guanine nucleotide exchange factor 3 (EPAC1): primary screen; also: nearly all actives have a fitted effect of over 50% in size
Details: EPAC1 GEF assay, Rap1b-BODIPY-GDP exchange fluorescence; series mostly up to 115 µM
Description: In multi-cellular eukaryotic organisms, the effects of cAMP are transduced by two ubiquitously-expressed intracellular cAMP receptors, the classic protein kinase A/cAMP-dependent protein kinase (PKA/cAPK) and the more recently discovered exchange protein directly activated by cAMP/cAMP-regulated guanine nucleotide exchange factor (EPAC/cAMP-GEF). Both PKA and EPAC are ubiquitously expressed in all tissues, and an increase in intracellular cAMP levels will lead to the activation of both PKA and EPAC. Therefore, careful dissections of the individual role and relative contribution of EPAC and PKA within the overall cAMP signaling in various model systems are critical for further elucidating the mechanism of cAMP signaling. To date no EPAC-specific antagonists and agonist, as well as isoform-specific agonists have been reported, and developing EPAC-specific pharmacological probes to determine the physiological functions that EPAC play in the overall cAMP-mediated signaling remains a major challenge within the research field. Furthermore, identified regulators of EPAC may lead to new mechanism-based therapeutic strategies specifically targeting the EPAC / cAMP-signaling components as EPAC has been implicated to play important roles in major human pathological conditions such as diabetes, heart disease, and cancer. This qHTS will be used to screen the Molecular Libraries Small Molecule Repository (MLSMR) as a concentration-titration series using the NCGC unique quantitative screening (qHTS) platform to find inhibitors for EPAC1. In addition, this assay will also be used as a counterscreen for the EPAC2 qHTS. This fluorescent based assay is developed and validated for EPAC1 that measures exchange using EPAC effector Rap1 complex with BODIPY-GDP, a GDP analog with a tethered fluorophores. Inhibitors are identified by monitoring the change in fluorescence signal as the exchanged free BODIPY-GDP has a reduced fluorescence compared to Rap1-bound BODIPY-GDP. Decrease in signal (inhibition) is the desired outcome for the EPAC1 antagonist while no activity in this assay is desired for the EPAC2 antagonist counterscreen. de Rooij, J., Zwartkruis, F. J., Verheijen, M. H., Cool, R. H., Nijman, S. M., Wittinghofer, A., and Bos, J.L. (1998) Nature 396, 474-477 [2] Kawasaki, H., Springett, G. M., Mochizuki, N., Toki, S., Nakaya, M., Matsuda, M., Housman, D. E., and Graybiel, A. M. (1998) Science 282, 2275-2279 NIH Chemical Genomics Center [NCGC] NIH Molecular Libraries Probe Centers Network [MLPCN] MLPCN Grant: NS066510 Assay Submitter (PI): Xiaodong Cheng, The University of Texas, Medical Branch
Briefly, three uL of reagents (100 nM EPAC1, 250 nM RAP1B-BODIPY-GDP, 50 uM GDP) were dispensed into a 1536-well Greiner black solid-bottom medium binding assay plate. Controls and test compounds (23 nL) were transferred to the plate via a Kalypsys pin tool equipped with a 1536-pin array. The plates were centrifuged at 1,000 rpm for 15 seconds followed by 5 minute incubation at room temperature. The assay plates were read at 5 minute intervals for 30 minutes in the ViewLux plate reader using 480nm excitation and 540nm emission filters. The results were normalized to the […] positive control ATA and DMSO.
Potency is read from the fitted curve at half-maximal effect; tags tell the direction and shape of the fitted curve.

Compound	Potency
O=C(O)c1cc(NC(=O)c2ccc(Br)cc2)cc(NC(=O)c2ccc(Br)cc2)c1	inconclusive [inhibitor, partial curve]
Cc1ccc(S(=O)(=O)Oc2ccc(/C=C3\C(=N)N4N=C(S(C)(=O)=O)SC4=NC3=O)cc2)cc1	inconclusive [inhibitor, partial curve]
O=C(Nc1ccc(C(=O)O)cc1)/C(=C\C=C\c1ccccc1)NC(=O)c1cccc(Br)c1	inconclusive [inhibitor, single point]
CCCCCCc1c(C)c2ccc(OCC(=O)N[C@@H](Cc3ccccc3)C(=O)O)cc2oc1=O	inconclusive [inhibitor, partial curve]
CC(c1ccccc1)N1C(=O)c2ccc(C(=O)Nc3ccccc3C(=O)O)cc2C1=O (stereo unspecified)	inconclusive [inhibitor, partial curve]
COc1cc(/C=C2\C(=N)N3N=C(S(C)(=O)=O)SC3=NC2=O)ccc1OCCOc1ccccc1C	inconclusive [inhibitor, full curve, poor fit]
COc1cc(/C=C2\C(=N)N3N=C(S(C)(=O)=O)SC3=NC2=O)cc(OC)c1OCCOc1cccc(C)c1	inconclusive [inhibitor, partial curve]
O=C(Nc1ccc(-c2nc3ccccc3[nH]2)cc1)c1ccccc1NS(=O)(=O)c1ccc(F)cc1	inconclusive [inhibitor, partial curve]
COc1cc(/C=C2/C(=O)NN(c3ccc(Cl)cc3)C2=O)cc(Br)c1O	inconclusive [inhibitor, partial curve]
Cc1cc(C)cc(-n2cccc2/C=C2/C(=N)N3C(=NC2=O)SN=C3S(C)(=O)=O)c1	inconclusive [inhibitor, partial curve]
O=C(O)Cn1cc(/C=c2/sc3nc4ccccc4n3c2=O)c2ccccc21	inconclusive [inhibitor, partial curve, poor fit]

— PubChem BioAssay AID720709 (National Center for Advancing Translational Sciences (NCATS), 2013)
